Source: the RNAGym collection of RNA variant scans (doi:10.7554/elife.90254)
Read counts are not given, so values of variants with three or more changes are uncertain.

B1: LINE1-mini (parent)
chain: GGCAGAGCUCAACACAGCGUGGCAAAGUGGCUGUGGCUAGACUGCC

Variants of: B1
Assay: self-cleavage, relative activity (ratio to wild type); higher = more cleavage; in vitro, sequencing; the parent is a self-cleaving ribozyme

Variant | self-cleavage
GGCAGAGCUCAAUAGAGCGUGGUAAAGUGGCUGUGUCAAGACUGCC | 0.01
GGCAGAGCUCAAUAGAGCGUGGCAAAGUGGUUGUGGCUAGACUGCC | 0.02
GGCAGAGCUCAAUAGAGCGUGGCAAAGUGGCUGUGGCUAGACUGUC | 0.05
GGCAGAGCUCAAUAGACCGAGGCAAAGUGGCUGUGGCUAGAUUGCC | 0.01
GGCAGAGCUCAAUAGAGCGUAGCAAAGUGGCUGUUGCUAGACUCCC | 0.02
GGCAGAGCUCAAUAGAGCGUGGCAAAGUGAUUGUGGCUAGAUUGCC | 0
GGCAGAGCUCAAUAGAGCGAGGCAAAGUGGCUGUGGCUAGACUGCC | 0.01
GGCAGAGCUCAAUAGAGCGUGGCAAAGUGGCGGUGGCUAGACUGCC | 0.09
GGCAGAGCUCAAUAUAGCCUGGCAAAGUGGCUGUGGCUAGAUUGCC | 0.03
GGCAGAGCUCAAUAUAGCGUUGCAAGGCGGCUCUGGAUAGACUGCC | 0.06
GGCAGAGCUCAAUAUAGCGGGACAUAGUGACUGUGGCUAGACUGCC | 0.03
GGCAGAGCUCAAUAUAGCGUGGCAAAGCGGCUGUGGCUAGACUGCC | 0.07
GGCAGAGCUCAAUACAGAGUGGCACAGUGGCUGUGGCUAGACUGCC | 0.02
GGCAGAGCUCAAUACAGAGUGGCAAGGUGGCUGCGGCUAGACUGCC | 0.02
GGCAGAGCUCAAUACAGAGUGGCAAAGUGGCUGUGGCUAGUCUGCC | 0.06
GGCAGAGCUCAAUACAGAGUGGAAAAGUGGCUGUGGCUAGACUGCC | 0.14
GGCAGAGCUCAAUACAGAGUGGGAUAGUGGCUGUGGCUGGACUGCC | 0.05
GGCAGAGCUCAAUACAGAGUGGUACAGUGGCUGUAGCUAGACUGCC | 1.16
GGCAGAGCUCAAUACAGAGUGGCAAAGUGGAUGUGGCUAGACUGCC | 0.02

Variant | self-cleavage
GGCAGAGCUCAAUACAGAGUGGCAAAGUGGGUGUGGCUAUACGGAC | 0.03
GGCAGAGCUCAAUACAGAGUGGCAAAGUGGUUGUGGCUAGACUGCC | 0.07
GGCAGAGCUCAAUACAGAGUGUCAAAGUGACUGUGGCUAGACUGCC | 0.08
GGCAGAGCUCAAUACAGAGUGGCAAAGUGGCUGUCGCUAGUGUGCC | 0.01
GGCAGAGCUCAAUACAGAGAGGGAAAGUGGCUGUGGAUAGGCUGCC | 0.07
GGCAGAGCUCAAUACAGAGUGGCAAAGAGGCUGUGGCUAGAAUGCC | 0.17
GGCAGAGCUCAAUACAGGGUGGCAACGUGGAUGUGGCUAGACUGCC | 0.17
GGCAGAGCUCAAUACAGGGUGACAAAGUGGCUGUGGCUGGAGUGUA | 0
GGCAGAGCUCAAUACAGGGUGGCAAAAUGGCUGUGGCUAGACAGCC | 0.09
GGCAGAGCUCAAUACAGUGUGGCAGGGCCGCUGUGCCUAGACUGCC | 0.04
GGCAGAGCUCAAUACAGUGUGGCAAAGUGGCUGUGGCUGGACUGCC | 0.37
GGCAGAGCUCAAUACAGUGUGGCAAAGUGGGCGUGGCUAGACUGCC | 0.2
GGCAGAGCUCAAUACAGUGUGACAAAGUGGAUGUGGCUAGACUGCC | 0.09
GGCAGAGCUCAAUACAGUGCGGCAAAGUGGCUGUGGCUAGACUGCC | 0.06
GGCAGAGCUCAAUACAGUGUGGCAAAGGGGCUGUCGCUAGACUGCC | 0.04
GGCAGAGCUCAAUACAGUGUGGCAAAGUGGCUGAGGUAAGAGUGCC | 0
GGCAGAGCUCAAUACAGCGUGGAACAGGGGCUGUGGCUGGACUGCC | 0.12
GGCAGAGCUCAAUACAGCGUGGAAAAGUGGAUGUGGCUAGACUGCC | 0.06
GGCAGAGCUCAAUACAGCGUGGAAAAGUGGCUGUGGCUAGAGUGGC | 0.01

Variant | self-cleavage
GGCAGAGCUCAAUACAGCGUGGAAAAGUGGCUGUGGCUAGACUUCU | 0.44
GGCAGAGCUCAAUACAGCGUGGUACAGUGGCUGUGGCUAGACAGCC | 0.07
GGCAGAGCUCAAUACAGCGUGGUAAAGUGGCUGUGGUUAGACUGCC | 0.81
GGCAGAGCUCAAUACAGCGUGGUAAAGAGGCUGUGGCUAGACUGCC | 0.05
GGCAGAGCUCAAUACAGCGUGGUAAAGUGGCCGUAGCUUGACUGCC | 0.05
GGCAGAGCUCAAUACAGCGUGGUAAAGUGGCCGUGGCUAUACUGCC | 0.18
GGCAGAGCUCAAUACAGCGUGGUAAAGUGGCUGUGGCGAGACCGCC | 0
GGCAGAGCUCAAUACAGCGUGGCAAAGUGGAUGUGGCUAGACUGAC | 0.06
GGCAGAGCUCAAUACAGCGUGGCAAAGUGGGUGUGGCUCAACUGCC | 0
GGCAGAGCUCAAUACAGCGUGGCAAAGUGGGUGUCGCUAGACUGCC | 0.08
GGCAGAGCUCAAUACAGCGUGGCAAAGUGGUUUUGGCUAGACUGCC | 0.02
GGCAGAGCUCAAUACAGCGUGGCAAAGUGGUUGUGGCGAGACUGCC | 0
GGCAGAGCUCAAUACAGCGUGGCAAAGUGGUUGUGGCGAGACAGCC | 0.01
GGCAGAGCUCAAUACAGCGUGGCAAAGUGGUUGUGGCUAGACCGCC | 0.06
GGCAGAGCUCAAUACAGCGUGGCAAAGUGGCUGUGGAUAGAAUGGC | 0.2
GGCAGAGCUCAAUACAGCGUGGCAAAGUGGCUGUGGUUUGACUGCC | 0.08
GGCAGAGCUCAAUACAGCGUGGCAAAGUGGCUGUGGUUAGACUGCA | 0.07
GGCAGAGCUCAAUACAGCGUGGCAAAGUGGCUGUGGUUAGACUACG | 0.01
